Experimental data taken from ChEMBL document CHEMBL4888484, “Replenishing the malaria drug discovery pipeline: Screening and hit evaluation of the MMV Hit Generation Library 1 (HGL1) against asexual blood stage Plasmodium falciparum ,using a nano luciferase reporter read-out” (2022).
Screen size: about 4,800 compounds; about 420 (8.8%) showed an effect of 50% or more. Some of the results follow.

Each compound was assayed on Plasmodium falciparum (assay: Confirmatory screen in NF54 nanoGlo assay, in single point, at 2uM, 72h). Conditions: timepoint 72 hour.
Format: functional, Erythrocyte

SMILES | % Inhibition
CCN1CCCCc2cc(C(=O)N[C@@H](C)COC)sc21 | -5%
CC(C)(C)NC1=Nc2ccccc2N[C@]12CCCN(C(=O)c1ccc3[nH]cnc3c1)C2 | -13%
Cc1cc(C)c(CC(=O)Nc2cnn(C)c2C2CC2)s1 | -2%
Cc1cncc(C(=O)N2CC(n3cnnc3C)C2)c1 | -19%
CCc1sc(N(C(=O)CCc2ccccc2)c2ccc(C)cc2C)nc1-c1ccc(OC)cc1 | -1%
NC(=O)NOCc1cccc(Cl)c1 | -1%
O=C(Nc1cc(N2CCCS2(=O)=O)ccc1O)c1cccc(Oc2cccc(C(F)(F)F)c2)c1 | 100%
CN(c1ncc(S(=O)(=O)c2ccccc2)c(N)n1)C1CCCCC1 | -9%
Cc1cc(Br)c2c(c1)C(O)(N1CCCC(C)C1)C(=O)N2 (configuration not stated) | 1%
Nc1ccc2c(c1)Oc1cc(N)ccc1OCCOCCOCCO2 | -10%
CC(C)c1cc(=O)[nH]c(-n2nc(C3CC3)cc2NC(=O)c2ccc(F)cc2)n1 | 93%
O=C(Nc1cnc(-n2ccnc2)nc1)C(c1ccccc1)c1ccccc1 | 36%
COc1cc2c(cc1OC)[C@@H](NC(=O)c1cnc(C3(C)OCCO3)s1)CCCC2 | 50%
O=C(Nc1ncc(Cc2ccc(Cl)c(C(F)(F)F)c2)s1)c1ccc2nnsc2c1 | 5%
Cn1cc(Oc2ccccc2C(=O)Nc2cccnc2O)cn1 | 3%
Cc1cc(-c2ccco2)cc(Cl)c1N | -1%
COc1ccccc1Cn1c(=O)c2sccc2n(CC(=O)NCCc2ccc(Cl)cc2)c1=O | 3%
CC(C)C[C@@H]1N[C@H](C(=O)NCCN(C)C)Cc2c[nH]c3cccc1c23 | -8%
Cc1cccc(NC(=O)Cn2c(C(F)(F)F)nc3cc4c(cc32)OCCCO4)c1C | 3%
O=C(NCc1ccc(O)nc1)C1(Cc2cccc(Cl)c2)CCCC1 | 3%
CC(C)N(CCCNC(=O)c1cnn2c3c(cnc12)CCCCCC3)Cc1ccccc1 | 0%
Cc1nc(N2CCOCC2)cc(N2CCN(C(=O)c3cccc(Br)c3)CC2)n1 | -6%
COc1cccc(C(=O)c2c[nH]c(C(=O)NCc3cccc(C(F)(F)F)c3)c2)c1 | -1%
COc1c(S(=O)(=O)c2ccc(C#N)cc2)cnc2ccc(Cl)cc12 | -13%
CCOC(=O)c1c(CN2CCCC2)n(C)c2cc(-c3cccnc3)c(O)c(Cn3ccnc3)c12 | 60%
NC(=O)C1CCN(CCC(=O)N2CCc3cc4ccc3[C@@H]2c2cccc(c2)OCCCNC(=O)c2cc(ccc2O)O4)CC1 | 96%
CC(C)OC[C@@H](O)CN1CC(C2CCC2)C1 | -14%
